This assay has as its target T1, Calmodulin from bovine brain (bovine, UniProt P62157).
T1 construct: calmodulin, bovine, purified from brain; also called purified bovine brain CaM; CaM; source: bought: Sigma-Aldrich Cat#208694, purified from bovine brain
The experiment in a line: SPR; Biacore 3000, 25 °C; biotinylated peptides captured on a streptavidin chip; CaM injected at 13.2 nM to 9.6 µM; HBSP (10 mM HEPES pH 7.4, 150 mM NaCl, 0.005% P20) with 1 mM CaCl2; equilibrium analysis, apparent KD. The following applies: both partners purified.

B1: Peptide INF2 […], biotinylated (for surface plasmon resonance) (peptide)
peptide: not shown
modifications: N-terminal K biotinylated in the ε-amino group
notes: added N-terminal K (biotinylated) and two G residues as spacer; INF2, human, […] (the full N-terminal extension); also called longer peptide encompassing […]; source: synthetic peptide, bought: pepMic Co., Ltd
Take B1: the binding result was “binds”.

The values are drawn from PMC9616786 (Cellular and Molecular Life Sciences, 2022).
